Test results as given in paper PMC3907300.
No constants are given. Whether binding was seen depends on the method and setting. Some binding calls cover weakened binding; strength is not graded here.

How the values were obtained:
[1] = molecular target: T1, zebrafish C-terminal portion of Wdr43 (357-650aa) (zebrafish) (UniProt Q8JHG6); test: two-hybrid; zebrafish proteins: Wdr43 constructs in bait vector pGABT7, Utp4 and Utp15 in prey vector pGADT7; growth in triple dropout medium after 3-5 days at 30°C; tested in both bait and prey constructs
T1 sequence: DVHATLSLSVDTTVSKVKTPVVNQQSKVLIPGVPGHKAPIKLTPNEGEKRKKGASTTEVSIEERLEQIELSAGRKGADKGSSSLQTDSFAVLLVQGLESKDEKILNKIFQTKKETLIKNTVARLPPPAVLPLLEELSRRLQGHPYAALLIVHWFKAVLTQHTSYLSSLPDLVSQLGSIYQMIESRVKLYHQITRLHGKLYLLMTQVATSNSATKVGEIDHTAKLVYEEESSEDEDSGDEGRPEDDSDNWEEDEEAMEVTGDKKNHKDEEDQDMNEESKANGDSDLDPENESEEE

[2] = molecular target: T2, zebrafish full length Wdr43 (zebrafish) (UniProt Q8JHG6); test: as above
T2 sequence: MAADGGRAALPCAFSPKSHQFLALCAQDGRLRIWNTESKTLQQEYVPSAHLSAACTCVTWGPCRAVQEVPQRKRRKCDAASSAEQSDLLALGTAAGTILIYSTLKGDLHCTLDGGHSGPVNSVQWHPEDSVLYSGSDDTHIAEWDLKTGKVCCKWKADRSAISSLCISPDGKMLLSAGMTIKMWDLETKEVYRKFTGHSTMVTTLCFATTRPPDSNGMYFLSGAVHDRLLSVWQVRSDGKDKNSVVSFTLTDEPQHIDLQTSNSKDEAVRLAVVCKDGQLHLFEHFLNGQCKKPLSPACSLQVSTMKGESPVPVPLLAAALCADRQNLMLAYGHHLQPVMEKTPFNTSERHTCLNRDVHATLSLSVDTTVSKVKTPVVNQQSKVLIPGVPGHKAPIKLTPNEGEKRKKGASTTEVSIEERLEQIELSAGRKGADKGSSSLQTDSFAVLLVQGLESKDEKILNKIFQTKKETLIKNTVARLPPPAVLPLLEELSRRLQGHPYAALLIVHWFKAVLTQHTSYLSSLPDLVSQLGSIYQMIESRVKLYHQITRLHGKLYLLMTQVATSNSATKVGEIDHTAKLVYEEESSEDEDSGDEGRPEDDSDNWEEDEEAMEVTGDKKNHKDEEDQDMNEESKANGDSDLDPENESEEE

[3] = molecular target: T3, zebrafish truncated fan mutant Wdr43 (1-356aa) (zebrafish) (UniProt Q8JHG6); test: as above
T3 sequence: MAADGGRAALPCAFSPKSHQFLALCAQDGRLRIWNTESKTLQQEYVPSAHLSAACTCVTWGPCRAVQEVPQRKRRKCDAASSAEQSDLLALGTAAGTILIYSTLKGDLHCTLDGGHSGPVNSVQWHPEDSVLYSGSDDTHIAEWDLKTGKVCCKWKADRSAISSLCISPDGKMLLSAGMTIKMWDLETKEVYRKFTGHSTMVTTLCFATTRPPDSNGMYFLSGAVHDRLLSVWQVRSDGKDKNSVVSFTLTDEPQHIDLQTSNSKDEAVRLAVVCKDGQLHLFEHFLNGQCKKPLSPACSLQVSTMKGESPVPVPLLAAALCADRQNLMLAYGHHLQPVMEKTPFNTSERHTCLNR

[4] = molecular target: T4, yeast Utp15 (yeast) (UniProt Q04305); test: two-hybrid; yeast proteins: Utp5 constructs in prey vector pGADT7, other t-Utp proteins in bait vector; AH109 yeast strain; growth on AHTL dropout medium after 3-5 days at 30°C
T4 sequence: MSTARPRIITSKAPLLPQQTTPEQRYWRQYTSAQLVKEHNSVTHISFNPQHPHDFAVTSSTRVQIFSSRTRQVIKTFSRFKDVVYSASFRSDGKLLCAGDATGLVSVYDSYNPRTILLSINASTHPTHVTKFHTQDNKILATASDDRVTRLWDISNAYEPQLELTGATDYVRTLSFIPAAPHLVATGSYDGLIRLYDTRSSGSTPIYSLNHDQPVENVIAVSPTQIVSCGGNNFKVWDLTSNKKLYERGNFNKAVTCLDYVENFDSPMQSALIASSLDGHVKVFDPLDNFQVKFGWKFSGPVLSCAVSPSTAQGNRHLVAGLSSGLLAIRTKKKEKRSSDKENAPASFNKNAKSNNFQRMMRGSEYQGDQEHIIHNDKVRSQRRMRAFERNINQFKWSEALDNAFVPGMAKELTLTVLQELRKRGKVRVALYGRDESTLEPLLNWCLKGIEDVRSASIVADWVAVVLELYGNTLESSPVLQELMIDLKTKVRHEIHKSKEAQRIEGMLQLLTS

[5] = molecular target: T5, yeast Utp4 (yeast) (UniProt Q06679); test: as above
T5 sequence: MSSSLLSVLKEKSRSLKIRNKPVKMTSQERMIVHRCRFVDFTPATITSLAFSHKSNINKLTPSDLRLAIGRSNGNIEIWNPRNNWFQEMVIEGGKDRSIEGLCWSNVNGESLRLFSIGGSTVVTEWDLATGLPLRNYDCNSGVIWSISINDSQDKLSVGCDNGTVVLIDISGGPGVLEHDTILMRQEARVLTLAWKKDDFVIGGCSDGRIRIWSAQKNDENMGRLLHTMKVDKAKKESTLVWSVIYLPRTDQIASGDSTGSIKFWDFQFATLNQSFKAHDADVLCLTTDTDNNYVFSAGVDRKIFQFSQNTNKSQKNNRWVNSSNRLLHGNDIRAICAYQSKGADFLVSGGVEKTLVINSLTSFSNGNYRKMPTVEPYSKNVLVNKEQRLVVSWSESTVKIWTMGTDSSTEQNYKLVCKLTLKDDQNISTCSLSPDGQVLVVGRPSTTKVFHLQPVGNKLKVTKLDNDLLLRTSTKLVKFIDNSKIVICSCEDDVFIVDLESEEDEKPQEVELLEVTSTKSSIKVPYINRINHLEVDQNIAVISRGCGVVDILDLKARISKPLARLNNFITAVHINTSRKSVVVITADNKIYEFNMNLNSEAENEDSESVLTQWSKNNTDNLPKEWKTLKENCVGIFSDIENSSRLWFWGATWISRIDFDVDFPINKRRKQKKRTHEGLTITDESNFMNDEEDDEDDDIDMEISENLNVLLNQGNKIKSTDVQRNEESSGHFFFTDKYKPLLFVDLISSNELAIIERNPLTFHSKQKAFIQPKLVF

B1: zebrafish Utp4 (protein, UniProt Q6P125 1-685)
chain: MGEFKVHRVRFFEYVPSGIRALAFNQHNERMAAAKMNGSVEIFHCSDRFFQEKIIPGREQAGIEGLTWVGERLFSAGLNGVITEYDLTNQRVKYTIDAYGGPIWAITGNQQGTHLAVGCEDGTVKLFEVTEDKIQFERNLDRQKGRIISLSWHPSGSKIAAGMMDMIQVFNVETGHSKHRILVDRGYGTSRGKECVVWSVVYLSDGTIISGDSVGMVKMWRDDTGTLIKSHNITKSDVLSLSVSQNEDSIVAGTSEGFVVQFQFLSMVLENNEKDWVRTRTFRNHTHDVRAVAEITTAVVSGGMDTQLVVRPLLDKHEVKSSASKLRKIQFPHRSLVSCARKAGTLLFQYPGHLELWRLGESEGEGIPGSSLLLKRKPEKLLHLKVKGEDHIRCSAVSPCGEWIAYSTTSSLRLYKLHCDSNNVSITKISKLPKVLGSASQLCFSSDSTHLFSASTQSSVHMVSLSQPECKFVATFKTKSGSHQAIHLLAASEDGKWLASANIDNEVHIYNLQTRKAHCTVPIYSSAVSAMAIHPTTNCLFMVHADQQIFEFSIEQKEYTDWSRLVQRQGLHRIWLERDTPCLNVTFNQKNPSHVILHDMYMFCIIDQSQPLPDSKSQFLNQLTLRSLPEEQRKSYSHAFKVCKTFKELLCVDVMGDQSLVVVERPLEDITAQLPAPIKQKKFAT
- binding [1]: binds
- binding [2]: binds
- binding [3]: no binding

B2: zebrafish Utp15 (protein, UniProt Q7ZW33 1-517)
chain: MASFKPTKVLSYPKLGEKVTEETLYWKNYKPPVQIKEFGAVSKIDFSPLPPHNYAVTASTRVHIYGLHSQEPIRNFTRFHDTAYGGSFRGDGKLLVAGSEEGLIRLFDIGGRVSLRQFKGHSKAVHATSFLSDGFRVLSGSDDLTCRVWDVASAVELSSITEHTDYIRAIAPSKLNPDVFVTGSYDHTVKMFDVRSGNSVMTMQHGQPVECVLLYPSEALLVSTGGRYVKVWDLLKGGQQLVSLKNHHKTVTCACLSSSNKLLTASLDRHVKVYNSSYKVVHNFDCASSILSLAVAPDDEAVAVGMTNGVLSIRHRKHKEEKEALTGRRKRGPSYRFFVKGKNFVPRQDDFLVSKPVRQHLQKYDKQLKRFEVSKALDTALETWTRTTKPEVTVAVIMELNRRGTLKNALAGRDEVSLTKILNFLLKHITDPRFSRPLLTVGDIVLDLYQQVIPQSPVVERLLQRLYEILGREAELQQELLQVLGILDTLFASLMPRKEVASFGAAAAAQESQLQAA
- binding [1]: binds
- binding [2]: binds
- binding [3]: no binding

B3: yeast full length Utp5 (protein, UniProt Q04177 1-643)
chain: MDSPVLQSAYDPSGQYLCYVTVALDKQRVGVQPTQRATSSGVDTVWNENFLYLEDSKLKVTCLKWVNLASSDTVAIILGMNNGEIWLYSVLANEVTYKFTTGNSYEIKDIDLMGNQLWCIDSSDAFYQFDLLQFKLLQHFRINNCVQLNKLTIVPAGDSVAQLLVASHSISLIDIEEKKVVMTFPGHVSPVSTLQVITNEFFISGAEGDRFLNVYDIHSGMTKCVLVAESDIKELSHSGQADSIAVTTEDGSLEIFVDPLVSSSTKKRGNKSKKSSKKIQIVSKDGRKVPIYNAFINKDLLNVSWLQNATMPYFKNLQWREIPNEYTVEISLNWNNKNKSADRDLHGKDLASATNYVEGNARVTSGDNFKHVDDAIKSWERELTSLEQEQAKPPQANELLTETFGDKLESSTVARISGKKTNLKGSNLKTATTTGTVTVILSQALQSNDHSLLETVLNNRDERVIRDTIFRLKPALAVILLERLAERIARQTHRQGPLNVWVKWCLIIHGGYLVSIPNLMSTLSSLHSTLKRRSDLLPRLLALDARLDCTINKFKTLNYEAGDIHSSEPVVEEDEDDVEYNEELDDAGLIEDGEESYGSEEEEEGDSDNEEEQKHTSSKQDGRLETEQSDGEEEAGYSDVEME
- binding [4]: binds
- binding [5]: binds

B4: yeast Utp5 C-terminal (344-643aa) (domain or fragment, UniProt Q04177 344-643)
chain: DLHGKDLASATNYVEGNARVTSGDNFKHVDDAIKSWERELTSLEQEQAKPPQANELLTETFGDKLESSTVARISGKKTNLKGSNLKTATTTGTVTVILSQALQSNDHSLLETVLNNRDERVIRDTIFRLKPALAVILLERLAERIARQTHRQGPLNVWVKWCLIIHGGYLVSIPNLMSTLSSLHSTLKRRSDLLPRLLALDARLDCTINKFKTLNYEAGDIHSSEPVVEEDEDDVEYNEELDDAGLIEDGEESYGSEEEEEGDSDNEEEQKHTSSKQDGRLETEQSDGEEEAGYSDVEME
- binding [4]: binds
- binding [5]: binds

B5: yeast Utp5 N-terminal (1-343aa) (domain or fragment, UniProt Q04177 1-343)
chain: MDSPVLQSAYDPSGQYLCYVTVALDKQRVGVQPTQRATSSGVDTVWNENFLYLEDSKLKVTCLKWVNLASSDTVAIILGMNNGEIWLYSVLANEVTYKFTTGNSYEIKDIDLMGNQLWCIDSSDAFYQFDLLQFKLLQHFRINNCVQLNKLTIVPAGDSVAQLLVASHSISLIDIEEKKVVMTFPGHVSPVSTLQVITNEFFISGAEGDRFLNVYDIHSGMTKCVLVAESDIKELSHSGQADSIAVTTEDGSLEIFVDPLVSSSTKKRGNKSKKSSKKIQIVSKDGRKVPIYNAFINKDLLNVSWLQNATMPYFKNLQWREIPNEYTVEISLNWNNKNKSADR
- binding [4]: no binding
- binding [5]: no binding
